About 2,200 (0.71%) of roughly 310,000 compounds showed an effect of 50% or more. The effect is printed as a negative number. The list shows a part of the results.

For this experiment, the target named is human ether-à-go-go-related gene (hERG) potassium channel (human, UniProt Q12809). Nature of the experiment: primary screen, population patch clamp on CHO cells stably expressing hERG.
Sequence of human ether-à-go-go-related gene (hERG) potassium channel (Q12809 whole entry, looked up): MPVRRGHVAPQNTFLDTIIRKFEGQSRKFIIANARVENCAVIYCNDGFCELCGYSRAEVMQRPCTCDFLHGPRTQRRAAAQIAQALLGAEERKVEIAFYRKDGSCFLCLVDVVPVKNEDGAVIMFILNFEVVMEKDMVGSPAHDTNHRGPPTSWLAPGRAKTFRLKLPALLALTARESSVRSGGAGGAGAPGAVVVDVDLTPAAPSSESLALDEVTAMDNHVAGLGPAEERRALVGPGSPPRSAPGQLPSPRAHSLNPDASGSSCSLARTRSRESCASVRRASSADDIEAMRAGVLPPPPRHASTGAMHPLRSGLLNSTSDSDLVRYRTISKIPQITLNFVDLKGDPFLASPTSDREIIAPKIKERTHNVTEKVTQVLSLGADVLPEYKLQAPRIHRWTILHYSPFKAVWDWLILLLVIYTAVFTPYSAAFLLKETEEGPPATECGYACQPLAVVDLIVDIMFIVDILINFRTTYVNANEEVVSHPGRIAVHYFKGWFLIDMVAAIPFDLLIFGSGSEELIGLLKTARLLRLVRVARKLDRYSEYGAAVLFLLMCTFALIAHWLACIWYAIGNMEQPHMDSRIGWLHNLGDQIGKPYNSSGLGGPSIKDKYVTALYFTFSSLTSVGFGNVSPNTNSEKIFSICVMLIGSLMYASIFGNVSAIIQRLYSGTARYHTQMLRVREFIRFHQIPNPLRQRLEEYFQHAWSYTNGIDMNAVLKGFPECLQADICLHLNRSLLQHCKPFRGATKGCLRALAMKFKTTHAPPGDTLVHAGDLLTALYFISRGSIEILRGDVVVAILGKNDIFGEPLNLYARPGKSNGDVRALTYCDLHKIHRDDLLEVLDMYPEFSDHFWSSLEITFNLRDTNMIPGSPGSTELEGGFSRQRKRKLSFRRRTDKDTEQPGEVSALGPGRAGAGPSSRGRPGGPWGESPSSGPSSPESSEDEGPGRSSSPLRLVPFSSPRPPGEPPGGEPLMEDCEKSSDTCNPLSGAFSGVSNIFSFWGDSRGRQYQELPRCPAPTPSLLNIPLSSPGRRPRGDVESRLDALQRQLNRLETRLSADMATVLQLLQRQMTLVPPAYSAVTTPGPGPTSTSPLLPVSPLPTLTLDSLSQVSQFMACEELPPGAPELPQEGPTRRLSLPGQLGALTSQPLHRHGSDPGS
Regarding `Cc1cccc(/C=C2\Sc3ccc(C(=O)NCC4CCCO4)cc3N(C)C2=O)c1` (stereo not drawn), the “hERG current change (%, negative = inhibition) at 1uM” value is given as 15.4%.
With `CCOCCCN(Cc1cc2cc(C)cc(C)c2[nH]c1=O)C(=O)N(CC)CC` the figure was 8.2%.
The figure for `Cc1ccc(C(C(=O)NC2CCCCC2)N(C(=O)c2csnn2)C2CCCC2)o1` (stereo not drawn) is 12.1%.
The figure for `Cc1ccc2c(c1)c1nnc(SCC(=O)Nc3ccc(N(C)C)cc3)nc1n2CC(=O)O` is 5.68%.
For the compound `O=C(CCS(=O)(=O)Cc1ccccc1F)NCc1ccccc1Cl`, the “hERG current change (%, negative = inhibition) at 1uM” value worked out at 9.35%.
With `CN1CCN(c2nc3c(c(=O)[nH]c(=O)n3C)n2CCSc2nnnn2-c2ccccc2)CC1` the figure was 6.39%; with `CC(C)NC(=O)CSc1nnc(COc2ccccc2Cl)o1`, 6.18%; with `O=[N+]([O-])c1ccc(-c2ccn[nH]2)o1`, 14.5%.
With `O=C(Cn1cnc2c(nnn2-c2cccc(Cl)c2)c1=O)N1CCOCC1` the figure was 9.1%.
For the compound `COc1cccc(-c2nc(Oc3cccc(C)c3C)c3ccccc3n2)c1O`, the “hERG current change (%, negative = inhibition) at 1uM” value amounted to 6.41%.
The figure for `CCCOC(=O)/C(=C\C=C\c1ccco1)NC(=O)c1ccccc1` is 16.1%.
With `Cc1nn(-c2ccccc2)c(C)c1/C=N/NC(=O)CSc1nnc(SCc2ccc(Cl)cc2)s1` the figure was 10.4%.
The figure for `NS(=O)(=O)c1cc(C(=O)OCC(=O)N2CCc3ccccc3C2)ccc1Cl` is -2.01%; for `CCC(C)(C)NC(=O)C(C(C)C)N(CC1CCCO1)C(=O)CNS(=O)(=O)c1ccccc1` (stereo not drawn) it is 8.12%.
Consider `COc1cccc(CN2CCNC(=O)C2CC(=O)NCCCN2CCCC2=O)c1` (stereo not drawn), for which the “hERG current change (%, negative = inhibition) at 1uM” value was determined as 6.76%.
The figure for `CC(=O)c1ccc(NC(=S)NNC(=O)NC2CCCCC2)cc1` is 5.2%; for `CNC(=O)Nc1cccc(-c2ccnc(C)n2)c1` it is 11.8%; for `Cc1ccc(S(=O)(=O)N2CCN(CCOc3c(Cl)cccc3Cl)CC2)cc1C` it is 2.9%.
With `Cc1cccc2c1NC(=O)/C2=C\C(=O)c1cccs1` the figure was 6.6%; with `CN1CCN(CCCNC(=S)Nc2ccc(F)c(Cl)c2)CC1`, 1.71%.
With `O=[N+]([O-])c1ccc(Cc2cncc(O)c2)cc1` the figure was 8.72%; with `COc1ccccc1/C=C\C=N\n1c(-c2ccc(Cl)cc2Cl)n[nH]c1=S`, 14.1%.
Consider `COc1cc(/C=C2/NC(=O)N(Cc3ccccc3F)C2=O)ccc1Oc1ccc([N+](=O)[O-])cn1`, for which the “hERG current change (%, negative = inhibition) at 1uM” value stood at 20.9%.
With `CCC(O)C1CCN(C(=O)c2ccc(OC3CCN(Cc4ccccn4)CC3)cc2)CC1` (stereo not drawn) the figure was 14.6%; with `Cc1ccc(C2N(c3ccc(F)cc3)C(=O)C3CCCN32)cc1` (stereo not drawn), 6.14%.
With `CC(C(=O)Nc1cccc([N+](=O)[O-])c1)[n+]1ccccc1.[Br-]` (stereo not drawn) the figure was 3.14%.
`O=C(NCc1cn2ccsc2n1)c1c(F)cccc1Cl`: the “hERG current change (%, negative = inhibition) at 1uM” value was 14.5%.
As to `CSC1=N/C(=C\c2ccc(C)s2)C(=O)S1`, the “hERG current change (%, negative = inhibition) at 1uM” value is given as 15.4%.
On to `Cn1c(=O)n(C)c2cc([N+](=O)[O-])c(N3CCN(C(=O)c4ccccc4Br)CC3)cc21`, for which the “hERG current change (%, negative = inhibition) at 1uM” value is -20.4%.
The figure for `Cc1ccc(C(=O)c2nocc2C(=O)c2cccs2)cc1` is 4.06%; for `CCc1ccc(N(C(=O)c2snc(C(N)=O)c2N)C(C(=O)NC2CCCC2)c2ccco2)cc1` (stereo not drawn) it is -1.12%.
`O=S(=O)(NCC(c1ccco1)N1CCN(c2ccccc2F)CC1)c1ccc2c(c1)OCCO2` (stereo not drawn): the “hERG current change (%, negative = inhibition) at 1uM” value was determined as 30.7%.
For the compound `Cc1cc(C)c(OCC(=O)Nc2cccc(O)c2)cc1C`, the “hERG current change (%, negative = inhibition) at 1uM” value worked out at 9.06%.
The figure for `COc1ccc(Cl)cc1S(=O)(=O)n1c([N+](=O)[O-])cnc1C` is -19%; for `COc1ccc(C(=O)Nn2c(SCC(=O)NC3CCCC3)nc3ccccc3c2=O)cc1` it is -9.3%.
The figure for `CCCOc1ccc(N2C(=O)CC(N(O)c3ccccc3)C2=O)cc1` (stereo not drawn) is 9.72%.
With `COC(=O)C(C)N(c1ccc(C)cc1)S(=O)(=O)c1c(C)[nH]c(=O)[nH]c1=O` (stereo not drawn) the figure was 6.77%.
Turning to `O=C(c1ccc(Cl)s1)N1CCCC1`, the “hERG current change (%, negative = inhibition) at 1uM” value was 6.35%.
With `CC(=NCc1ccc2c(c1)OCO2)c1c(O)n(Cc2ccccc2)c(=O)[nH]c1=O` the figure was 3.16%; with `Cc1ccc(N=Cc2nc(/C=C/c3cccc([N+](=O)[O-])c3)oc2O)cc1`, 7.1%.
The figure for `COC(=O)C1=C(c2ccccc2OCc2ccccc2)C[C@@H]2CC[C@H]1N2C(=O)NC1CCN(Cc2ccccc2)CC1` is 13.2%.
With `Cc1cccc(CNC(=O)Cn2ccc3cc(S(=O)(=O)N4CCCC4)ccc32)c1` the figure was 19.4%.
Turning to `CCCCCC(=O)Nc1nc(C)c(-c2csc(Nc3cc(Cl)ccc3OC)n2)s1`, the “hERG current change (%, negative = inhibition) at 1uM” value is reported as 15.7%.
The figure for `CN(C)C(=S)Nc1ccc(S(=O)(=O)N2CCCCC2)cc1` is -3.42%; for `COc1ccc(/C=N/NC(=O)CNC(=O)c2ccc3c(c2)OCCO3)c(C(=O)O)c1OC` it is 10.3%; for `CCOc1ccccc1N(CC(=O)Nc1cccc2ccccc12)S(C)(=O)=O` it is 8.32%.
For `CC(C)(C)OC(=O)N1CCC(C(=O)N[C@H](Cc2ccccc2)C(=O)O)CC1`, the “hERG current change (%, negative = inhibition) at 1uM” value turned out to be 11.5%.
With `O=C1CN(Cc2cc(=O)oc3cc4c(cc23)CCC4)CCN1` the figure was -29.3%; with `OCC1(Cc2ccccc2)CCN(Cc2cnc(-c3ccc(Cl)cc3)nc2)CC1`, -13.4%; with `COc1cccc(C2C(C(=O)c3cc4ccccc4o3)=C(O)C(=O)N2c2cc(C)on2)c1` (stereo not drawn), 12.1%.
Take `O=C(CN1c2ccccc2Sc2ccccc21)NNC(=S)Nc1ccc(Cl)cc1`: the “hERG current change (%, negative = inhibition) at 1uM” value is listed as 11.5%.
As to `O/N=C1\CC/C(=N\O)c2nn(-c3ccccc3Cl)nc21`, the “hERG current change (%, negative = inhibition) at 1uM” value was found to be 3.48%.
With `CC(C)(C)OC(=O)NC(CNCc1ccccc1)Cc1ccccc1` (stereo not drawn) the figure was 3.93%; with `O=C(NC1CCN(C(=O)Nc2ccc(F)cc2)CC1)c1cccc(F)c1`, 9.2%.
The figure for `Cc1ccc(NC(=O)CSc2nnc(CNC(=O)c3ccco3)n2C)cc1` is -1.97%; for `C=C(C)C1CC=C(C)/C(=N\NC(=S)Nc2ccc(C)cc2)C1` (stereo not drawn) it is 13.7%; for `CCOC(=O)c1ccc(NC(=O)c2cc(=O)[nH]c3ccccc23)cc1` it is 9.68%.
The figure for `CCOC(=O)N1CCN(S(=O)(=O)N2CCCC(C(=O)NCc3ccc(OC)cc3OC)C2)CC1` (stereo not drawn) is 5.69%.
For the compound `CCOc1c(C)cnc2c1c(=O)n(CC(=O)NCC1CCCO1)c(=O)n2C` (stereo not drawn), the “hERG current change (%, negative = inhibition) at 1uM” value came out at 10.6%.
In the case of `Cc1ccc(C(=O)NC2CC2)cc1S(=O)(=O)N1CCOCC1`, the “hERG current change (%, negative = inhibition) at 1uM” value was 7.61%.
With `Cc1cc(C)c(C)c(C(=O)CSc2nnc(-c3ccc4[nH]c(C)c(C)c4c3)o2)c1C` the figure was 11.6%; with `CCc1ccc(OCC(=O)Nc2ccc(-c3nc4ccccc4o3)c(O)c2)cc1`, 3.68%.
With `CC(C)Cc1cc(C(=O)NCc2ccco2)no1` the figure was 4.97%.
With `O=C(CC1Sc2ccccc2NC1=O)Nc1cccnc1` (stereo not drawn) the figure was -6.25%; with `COc1cc(C(=O)N2CCN(c3ccccc3F)CC2)ccc1OCC(=O)N1CCOCC1`, -34.2%; with `CC(=O)c1ccc(NC(=O)C2(S(=O)(=O)c3ccccc3)CC2)cc1`, 8.42%.
As to `COc1ccc2oc(C(=O)OCC(=O)NC3(C#N)CCCC3)c(C)c2c1`, the “hERG current change (%, negative = inhibition) at 1uM” value was 15.8%.
The figure for `CCOC(=O)C1=C(CSc2nccn2C)NC(=O)NC1c1ccc2c(c1)OCO2` (stereo not drawn) is 8.12%.
Regarding `CC(C)Cc1nnc(NC(=O)CCC(=O)NCc2ccccc2Cl)s1`, the “hERG current change (%, negative = inhibition) at 1uM” value was found to be 13.1%.
The figure for `Cc1ccc(CS/C(Nc2ccccc2C)=C(\C#N)C(N)=O)c(C)c1` is 12.1%; for `CC1=C(c2ccccc2)[N+](=O)C2(CCCC2)N1[O-]` it is 15.2%; for `CC(C)CNC(=O)CC(c1ccccc1)c1ccccc1` it is 6.28%.
With `Cc1cc(C)c(NC(=O)CN2CCOCCOCCOCCOCC2)c(C)c1` the figure was 0.747%; with `Cc1ccc(-c2cc(-c3ccccc3)nc(N(C)N)n2)cc1`, 15.5%.
Take `CC(C)(C)NC(=S)NCc1ccncc1`: the “hERG current change (%, negative = inhibition) at 1uM” value was 1.31%.
Turning to `COc1ccccc1N(C(=O)c1snc(C(N)=O)c1N)C(C(=O)NC1CCCC1)c1ccco1` (stereo not drawn), the “hERG current change (%, negative = inhibition) at 1uM” value is given as -3.74%.
On to `Cc1ccc2nc(SCc3nnc(-c4cccs4)o3)[nH]c2c1`, for which the “hERG current change (%, negative = inhibition) at 1uM” value was 11.2%.
With `CSc1nnc2c(n1)OC=Nc1ccccc1-2` the figure was 1.95%.
With `COc1cc(C(=O)C(=O)c2ccc(O)c(OC)c2)ccc1O` the figure was 13.8%.
With `CCOC(=O)N1CCN(S(=O)(=O)c2cc3c(cc2C)NC(=O)CO3)CC1` the figure was -11.6%; with `O=C(Oc1ccc2ccc(OC(=O)N3CCOCC3)cc2c1)N1CCOCC1`, 1.33%; with `CC(=O)N[C@@H](Cc1c[nH]c2ccccc12)C(=O)NCc1ccccc1`, 13.9%.
Turning to `Brc1ccc(C=Nc2ccc3c(c2)OCCOCCOCCO3)s1`, the “hERG current change (%, negative = inhibition) at 1uM” value is reported as -58.3%.
The figure for `Cc1ccc(S(=O)(=O)N(CC(=O)NCc2ccncc2)Cc2ccc(F)cc2)cc1` is -75%; for `COC(=O)C1=C(C)n2cnnc2NC1c1ccc(Cl)cc1` (stereo not drawn) it is 11.7%.
`CSc1ccccc1C(=O)C1CCCN(C(=O)c2cc(C(C)C)no2)C1` (stereo not drawn): the “hERG current change (%, negative = inhibition) at 1uM” value is given as -1.05%.
In the case of `CCOC(=O)C1=NNC2(c3ccc(Cl)cc3)C(=O)N(c3ccc(C)cc3)C(=O)C12` (stereo not drawn), the “hERG current change (%, negative = inhibition) at 1uM” value was 10.8%.

The record behind these values is publication PMC4336329 (PLoS ONE, 2015).
